Assay results from ChEMBL document CHEMBL4888484, “Replenishing the malaria drug discovery pipeline: Screening and hit evaluation of the MMV Hit Generation Library 1 (HGL1) against asexual blood stage Plasmodium falciparum ,using a nano luciferase reporter read-out” (2022).
Screen size: about 150,000 compounds; about 540 (0.36%) showed an effect of 50% or more. This is one part of the list.

What follows are compounds tested on Plasmodium falciparum (assay: Primary screen in NF54 nanoGlo assay, in single point, at 2uM, 72h; a lower Z score goes with more inhibition). Conditions: timepoint 72 hour.
Type: functional, Erythrocyte
`O=C(CCN1CCc2onc(-c3cccc4ccccc34)c2C1)N1CCCC1` was tested, and the “% Inhibition” value was -1% and the Z score was 0.14.
`O=C(c1ccc(F)c(F)c1F)N1C[C@@H]2CN(CC3CCC3)C[C@]2(C(=O)O)C1` was tested, and the “% Inhibition” value was -16% and the Z score was 1.51.
`Brc1ccc2cc(Oc3ncccn3)ccc2c1` was tested, and the “% Inhibition” value was -19% and the Z score was 3.03.
In the case of `C=CCCS(=O)(=O)N1CCC[C@H](c2nncn2C(C)C)C1`, the “% Inhibition” value is reported as -4% and the Z score is reported as 0.52.
`COC(=O)c1ccccc1N1C(=O)[C@@H]2[C@H](Cc3ccccc3)N[C@]3(C(=O)Nc4c3ccc(Cl)c4C)[C@@H]2C1=O` was tested, and the “% Inhibition” value was -8% and the Z score was 0.97.
In the case of `Cc1ccc(C(C)NC(=O)N(C2CC2)C(C)C2CC2)o1` (stereo unspecified), the “% Inhibition” value is reported as -2% and the Z score is reported as 0.22.
`Cn1ccc(-c2noc([C@@H](O)C3CCCC3)n2)n1` was tested, and the “% Inhibition” value was 5% and the Z score was -0.92.
`Cc1noc(C)c1CC(=O)Nc1ccc2c(c1)NC(=O)[C@H](C)O2` was tested, and the “% Inhibition” value was -5% and the Z score was 0.84.
For `CCCN1C(=O)[C@H](Cc2ccccc2)NC12CCN(S(=O)(=O)c1ccc(Cl)c(Cl)c1)CC2`, the “% Inhibition” value was -7% and the Z score was 0.95.
In the case of `CCc1ccccc1OCCN1C[C@H](O)[C@@H](F)C1`, the “% Inhibition” value is reported as -3% and the Z score is reported as 0.6.
In the case of `COc1ccc(F)cc1C(=O)N1CCN(c2cc(=O)[nH]c(N)n2)CC1`, the “% Inhibition” value is reported as -6% and the Z score is reported as 1.26.
`O=C1NC2=Nc3ccccc3NC(c3ccccc3)=C2[C@H](c2ccccc2Cl)N1` was tested, and the “% Inhibition” value was 4% and the Z score was -0.47.
In the case of `CC(C)(C)CC(C)(C)NCc1ccccn1`, the “% Inhibition” value is reported as 29% and the Z score is reported as -3.86.
With `Cc1nc(Cn2nc3ccccc3n2)n(CCO)n1` the “% Inhibition” value was -8% and the Z score was 0.8.
For `O=C(NCC1COCCO1)c1cn(CC(O)c2ccsc2)nn1` (stereo unspecified), the “% Inhibition” value was -12% and the Z score was 2.35.
`CCCn1ncc(C(=O)NCCNc2cc(C)ccn2)c1C` was tested, and the “% Inhibition” value was -21% and the Z score was 1.82.
With `Cc1ccc(S(=O)(=O)N[C@@H](C)c2cc3n(n2)CCCC3)c(C)c1` the “% Inhibition” value was -3% and the Z score was 0.55.
In the case of `COc1ccc(CN2CCCc3c2cccc3S(N)(=O)=O)nn1`, the “% Inhibition” value is reported as -8% and the Z score is reported as 0.81.
With `OCCCNCc1cc2cc3c(cc2nc1OCc1cccc(F)c1)OCO3` the “% Inhibition” value was -9% and the Z score was 0.99.
`O=C1NC2(CCCC2)C(=O)N1Cc1nnc(-c2ccccc2)o1` was tested, and the “% Inhibition” value was -30% and the Z score was 3.47.
`O=C(N[C@@H]1C[C@H]1c1ccc(Cl)cc1)C1CCCN1C1CCOCC1` (stereo partly specified) was tested, and the “% Inhibition” value was -7% and the Z score was 0.73.
`C[C@@H](C(=O)N1CCN(c2ccccn2)CC1)n1c2ccccc2c2cnn(C)c(=O)c21` was tested, and the “% Inhibition” value was -6% and the Z score was 1.18.
In the case of `CCC[C@H]1COCCN1Cc1cnc(OC)nc1`, the “% Inhibition” value is reported as -7% and the Z score is reported as 1.19.
With `CCOc1cc(CNc2ccn(CCC(N)=O)n2)ccc1O[C@@H](C)C(=O)N(C)C` the “% Inhibition” value was 0% and the Z score was 0.06.
In the case of `NC[C@H]1CCCN1C(=O)c1ccnc(C2CC2)n1`, the “% Inhibition” value is reported as 0% and the Z score is reported as -0.06.
In the case of `CC1CN(C(=O)c2ccc3[nH]ncc3c2)CC(C)N1` (stereo unspecified), the “% Inhibition” value is reported as -1% and the Z score is reported as 0.1.
In the case of `CN(CCc1ccccc1)C[C@@H]1OC[C@H](NC(=O)C2CCC2)[C@H]1O`, the “% Inhibition” value is reported as 3% and the Z score is reported as -0.41.
With `N#Cc1[nH]ncc1NS(=O)(=O)c1ccc2c(c1)CCCC2` the “% Inhibition” value was 4% and the Z score was -0.52.
For `CCCCN(Cc1cccn1Cc1cccc(C)c1)C(=O)CN(CC(C)C)C(=O)c1ccc(OC)cc1`, the “% Inhibition” value was -6% and the Z score was 0.83.
In the case of `Cc1nc2c(c(N3CCC(NC(=O)Cc4cccnc4)CC3)n1)CCCC2`, the “% Inhibition” value is reported as -10% and the Z score is reported as 1.34.
`CC(O)CN(C(=O)NC1c2ccccc2CCCC1C)C(C)CO` (stereo unspecified) was tested, and the “% Inhibition” value was 4% and the Z score was -0.79.
For `CC(N=C1NC(=NC(C)c2ccccc2)c2ccccc21)c1ccccc1` (stereo unspecified), the “% Inhibition” value was 24% and the Z score was -3.04.
For `CC[C@H](C)[C@@H]1NC(=O)[C@@H]2C[C@H](NC(=O)c3ccc(-c4ccccc4)cc3)CN2C1=O`, the “% Inhibition” value was -12% and the Z score was 1.4.
`Cc1ccc(NC(=O)N2CCC(N3CC(F)(F)C[C@H]3COCC3CC3)CC2)c(C)c1` was tested, and the “% Inhibition” value was -3% and the Z score was 0.59.
In the case of `CC1NC(=O)CCC1NC(=O)C1CC1C1CC1` (stereo unspecified), the “% Inhibition” value is reported as -2% and the Z score is reported as 0.25.
For `CNc1c(-n2cc(C(=O)OC)c(C(=O)OC)c2C#N)c(=O)n(C)c(=O)n1C`, the “% Inhibition” value was 35% and the Z score was -4.5.
`Clc1cc(Cl)c2oc(N3CC[C@H](c4nn[nH]n4)C3)nc2c1` was tested, and the “% Inhibition” value was -8% and the Z score was 1.57.
With `Cc1cnc(C(C)(C)NC2CCOC2C)s1` (stereo unspecified) the “% Inhibition” value was -5% and the Z score was 0.73.
For `COc1ccc(N2C[C@@]34C=C[C@@H](O3)C(C(=O)NCc3ccncc3)[C@H]4C2=O)cc1` (stereo partly specified), the “% Inhibition” value was 5% and the Z score was -0.57.
`Cc1cccc(N(C)C(=O)c2ccc(-c3cccc(Br)c3)n2C)n1` was tested, and the “% Inhibition” value was -5% and the Z score was 0.59.
In the case of `O=C(CCc1nnc2ccc(N3CCOCC3)nn12)NC1CCCC1`, the “% Inhibition” value is reported as -22% and the Z score is reported as 2.1.
With `COc1cc2c(cc1CNC(=O)c1nn(C)c3c1CCCC3)OCCO2` the “% Inhibition” value was -19% and the Z score was 3.66.
`CCN(Cc1nonc1C)C(=O)c1cc(C)n(C(F)F)n1` was tested, and the “% Inhibition” value was 7% and the Z score was -0.87.
For `Cc1cc(C)cc(CNC(=O)N(C)CC2(CO)CCOCC2)c1`, the “% Inhibition” value was 0% and the Z score was -0.06.
For `CS(=O)(=O)N1CCN(C(=O)c2coc(NC(=O)c3ccccc3)n2)CC1`, the “% Inhibition” value was -5% and the Z score was 0.77.
In the case of `Cc1n[nH]c(C)c1S(=O)(=O)Nc1cccc2c1CCCC2`, the “% Inhibition” value is reported as 3% and the Z score is reported as -0.5.
`O=C(NCc1cccnc1Oc1ccc(F)cc1F)[C@H]1CCCNCC1` was tested, and the “% Inhibition” value was 7% and the Z score was -1.29.
`Cc1ccc(CN(Cc2ccc3c(c2)OCO3)CC(C)(C)O)o1` was tested, and the “% Inhibition” value was -10% and the Z score was 1.48.
In the case of `Cc1ccc(CC(=O)Nc2ccc(N3C(=O)CC[C@@H]3C)cc2)cc1F`, the “% Inhibition” value is reported as 0% and the Z score is reported as 0.06.
`CC(CC(=O)O)C1CCCN(C(=O)OC(C)(C)C)C1` (stereo unspecified) was tested, and the “% Inhibition” value was -3% and the Z score was 0.53.
With `COc1ccc2cc3n(c2c1)C[C@@](C)(C(=O)NC1CCCC1)N(c1ccc(Cl)cc1)C3=O` the “% Inhibition” value was 2% and the Z score was -0.33.
`Cc1ccc(C(=O)N(CCC#N)C2CCOCC2)cc1Cl` was tested, and the “% Inhibition” value was -13% and the Z score was 1.71.
In the case of `O=C(NC1CCCCC1)c1cscn1`, the “% Inhibition” value is reported as -7% and the Z score is reported as 0.92.
